This note sets out measurements from ChEMBL document CHEMBL1157539, “Thousands of chemical starting points for antimalarial lead identification” (Nature, 2010).

Whole data set: some 13,000 compounds, median “IFI” near 4, cut for the highest 2% near 17. The list shows a part of the results.

The assay can be described thus: GSK_TCMDC: Inhibition Frequency Index (IFI). The number of non-kinase HTS assays where a compound showed > 50 % inhibition, expressed as a percentage of the number of such assays in which the compound was tested (-0 is zero). Format: functional.
`Cc1ccc(NC(=O)Nc2ccc(Cl)cc2)cc1-c1cccc(C(=O)Nc2ccc(F)cc2)c1` yielded an IFI of 15.9%. For the molecule `COc1ccc2ncc(F)c([C@H](O)CN3CCC(NCc4cc5c(cn4)OCCO5)CC3)c2c1`, the IFI was -0%. Molecule `COc1cc(NC(=O)Nc2ccc([N+](=O)[O-])cc2OC)c(OC)cc1Cl` registered an IFI of 1.83%. The molecule `CN1CCC(C(=O)Nc2cccc(-c3ccc(-c4nc5ccccc5[nH]4)cc3)c2)CC1` registered an IFI of 4.31%. In the case of `COc1ccc2ncc(F)c(CCN3CC(O)C(CNCc4ccc(F)cc4)C3)c2n1` (stereo not given), the IFI was 3.88%.

With `CCN1CCN(CCNc2c3ccccc3nc3ccccc23)CC1`, the IFI came to 6.02%. In turn, `COc1cccc2c(N/N=C/c3ccccc3[N+](=O)[O-])cc(C)nc12` gave an IFI of 1.47%. In turn, `C[C@@H](CC1CCCCC1)OC(=O)N[C@H]1CCN(C#N)C1` showed an IFI of 2.94%. The same measure for `CC(C)(C)c1cc(C(=O)N2CCN(c3nccnc3C#N)CC2)n(Cc2ccccc2)n1`: 1.45%. On to `O=C(NCCCCN1CCC(c2ccc3c(c2OCc2ccncc2)CCCC3)CC1)c1ccc(NC(=O)c2ccc(Cl)cc2)cc1`, for which the IFI was 9.57%.

On to `O=C(Nc1ccc(Cl)c(C(F)(F)F)c1)Nc1ccc(Cl)c(C(F)(F)F)c1`, for which the IFI is 12.7%. In turn, `COc1cc2nccc(Nc3cccc(Oc4ccccc4)c3)c2cc1OC` gave an IFI of 1.44%. `N#Cc1ccc(NC(=O)N2CCCN(CCCCCNC(=O)/C=C/c3ccc(Cl)c(Cl)c3)CC2)cc1` registered an IFI of 4.7%. The same measure for `COc1ccc2ccc(F)c(CC(=O)N3CCOC(CNCc4cccc(-c5ccc(F)cc5)n4)C3)c2n1` (stereo not given): 2.78%. For the molecule `CC(Cc1ccc(Cl)cc1)Nc1nc(NC2CCCC2)nc(N2CCC(C#N)(c3ccccc3)CC2)n1` (stereo not given), the IFI turned out to be 0.77%. Molecule `COc1ccc2nccc([C@@H](O)CN3CCC(NCc4ccc(OC)c(NC(C)=O)c4)CC3)c2c1` showed an IFI of -0%. The same measure for `CN(C)CCOc1ccc(-c2cc(-c3ccncc3)c(-c3ccc(Cl)c(O)c3)o2)cc1`: 6.99%; for `Cc1ccccc1OCC(O)CNC1CCC(NCC(O)COc2ccccc2C)CC1` (stereo not given): 14.1%. The same measure for `Fc1ccc2c(NN=Cc3ccccc3)ccnc2c1`: 2.88%. `CN(C)CCNCc1cccc(-c2ccc3c(Nc4ccc(Oc5ccccc5)cc4)ccnc3c2)c1` registered an IFI of 5.04%. `C=CCN(c1ccc(OC)cc1)S(=O)(=O)c1ccc(Cl)c(C(=O)Nc2cccc(C#N)c2)c1` registered an IFI of 3.95%.

As for `CS(=O)(=O)c1ccc(CCNCc2ccc(-c3ccc(CNC4Cc5ccccc5C4)cc3)nc2)cc1`, the IFI was determined as 5.44%. `Oc1ccc(-c2cc(COc3ccccc3C(F)(F)F)c(C3=CCNCC3)cc2COc2ccccc2C(F)(F)F)cc1` returned an IFI of 17.3%.

In turn, `N#Cc1ccnc(-c2ccc(CNC3CCN(CC4Cn5c(=O)ccc6ccc(F)c4c65)CC3)cc2)c1` (stereo not given) had an IFI of 1.85%. `CCn1cnc2c(N3CCCS3(=O)=O)cc(C(=O)N[C@@H](Cc3ccccc3)[C@H](O)CNC(C)(C)c3cccc(C(F)(F)F)c3)cc21` came in with an IFI of 3.73%.
